Data from article PMC4336329 (PLoS ONE, 2015).
Out of some 310,000 compounds screened, about 14,000 (4.5%) showed an effect of 50% or more. Effects have a minus sign here. The list shows a part of the results.

Molecular target: human ether-à-go-go-related gene (hERG) potassium channel (human, UniProt Q12809)
Assay: primary screen, population patch clamp on CHO cells stably expressing hERG
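Further: peak tail current of the secondary pulse compared with the same well before compound.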

Chain of human ether-à-go-go-related gene (hERG) potassium channel (Q12809 whole entry, looked up): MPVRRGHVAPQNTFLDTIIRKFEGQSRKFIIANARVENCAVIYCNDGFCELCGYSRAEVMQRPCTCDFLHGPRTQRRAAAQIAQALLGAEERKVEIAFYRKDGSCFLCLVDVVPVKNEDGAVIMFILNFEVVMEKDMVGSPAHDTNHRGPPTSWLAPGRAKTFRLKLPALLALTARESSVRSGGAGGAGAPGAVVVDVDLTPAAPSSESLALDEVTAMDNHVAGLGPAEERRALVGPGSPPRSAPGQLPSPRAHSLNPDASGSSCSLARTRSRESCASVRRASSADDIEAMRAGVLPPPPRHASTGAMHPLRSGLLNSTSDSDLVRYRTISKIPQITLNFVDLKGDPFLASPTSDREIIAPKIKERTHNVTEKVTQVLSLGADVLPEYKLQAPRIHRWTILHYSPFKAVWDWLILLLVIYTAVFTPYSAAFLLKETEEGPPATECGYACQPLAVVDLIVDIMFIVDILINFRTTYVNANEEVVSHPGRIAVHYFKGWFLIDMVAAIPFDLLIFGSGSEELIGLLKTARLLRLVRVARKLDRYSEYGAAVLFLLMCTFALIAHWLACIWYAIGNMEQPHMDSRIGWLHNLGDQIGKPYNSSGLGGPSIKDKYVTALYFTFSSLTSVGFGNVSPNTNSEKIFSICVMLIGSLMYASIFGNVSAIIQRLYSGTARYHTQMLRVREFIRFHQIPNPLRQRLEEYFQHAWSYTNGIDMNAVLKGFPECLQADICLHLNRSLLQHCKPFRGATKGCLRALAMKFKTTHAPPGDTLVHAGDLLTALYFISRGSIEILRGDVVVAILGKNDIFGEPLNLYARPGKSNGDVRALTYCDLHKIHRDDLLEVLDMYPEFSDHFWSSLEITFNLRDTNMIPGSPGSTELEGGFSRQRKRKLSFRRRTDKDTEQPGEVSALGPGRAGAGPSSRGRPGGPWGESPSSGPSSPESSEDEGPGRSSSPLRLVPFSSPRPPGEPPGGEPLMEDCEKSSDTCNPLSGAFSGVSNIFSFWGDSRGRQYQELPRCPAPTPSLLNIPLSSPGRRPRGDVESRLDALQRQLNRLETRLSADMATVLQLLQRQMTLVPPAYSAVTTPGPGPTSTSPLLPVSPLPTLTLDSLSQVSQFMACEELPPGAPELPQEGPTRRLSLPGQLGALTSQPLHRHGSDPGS

In order of falling “hERG current change (%, negative = inhibition) at 10uM” value:
1. c1csc(-c2noc(CN3CCc4sccc4C3)n2)c1  41.5%
2. Cc1cc(NC(=O)COC(=O)CNS(=O)(=O)c2ccc(C)c(C)c2)no1  32.9%
3. O=C(CSc1nc2ccccc2c(=O)[nH]1)Nc1ccc(C(=O)O)cc1  29.2%
4. CCCCn1c(=O)c(C(=O)N/N=C/c2ccc(F)cc2)c(O)c2ccccc21  20.1%
5. O=C(CSc1nncn1-c1ccccc1)Nc1ccccc1F  19.4%
6. CCN1CCN(C(=O)C(C)Nc2cc(Cl)c(OC)cc2OC)CC1 (stereo not drawn)  17.6%
7. COc1ccc(C(CC(=O)NCc2ccccc2)Sc2n[nH]c(-c3ccc(Cl)cc3)n2)cc1 (stereo not drawn)  15.5%
8. CCn1c(-c2ccccc2)c[nH]c1=S  15.4%
9. O=C(O)C(=O)O.c1ccc(CNC23CC4CC(CC(C4)C2)C3)nc1  15.3%
10. CCN(CC)C(=O)CSc1nc(-c2ccco2)cc(C(F)(F)F)c1C#N  15%
11. C[C@H](NC(=O)[C@H]1N2C(=O)c3ccccc3C2SC1(C)C)C(=O)N1CCCCC1 (stereo partly drawn)  14.9%
12. c1ccc2c(c1)Cc1ccccc1O2  14.7%
13. CCOc1ccc(NC(=O)c2sccc2-n2cccc2)cc1  13.8%
14. On1c(-c2ccco2)nc2c1CCc1nonc1-2  13.6%
15. Cc1cc(C)nc(/N=C2\NC(=O)CC(C(=O)O)N2c2ccc(C)c(C)c2)n1 (stereo not drawn)  12.9%
16. Cc1ccc(C(=O)OCC(=O)N2CCC(Cc3ccccc3)CC2)cc1N  12.8%
17. CC[C@H](C)[C@@H](C(=O)NCCCCCCCCCCC(=O)N1CCNCC1)n1cc(CCCCN=C(N)N)nn1  12.7%
18. CC(=O)c1sc(NC(=O)COc2ccc(Cl)cc2C)nc1C  12.6%
19. Cc1cc(C)c(NC(=O)CSc2nc(COc3ccccc3)nc3ccccc23)c(C)c1  12.4%
20. Cc1ccc(C(=O)NNC(=O)CCCN2C(=O)/C(=C/c3ccccc3Cl)SC2=S)cc1  11.2%
21. O=C(Cc1ccccc1)Nc1ccccc1CO  10.6%
22. CC(C)CC(=O)NC(=S)Nc1ccccc1F  10.1%
23. CSC1=NCCN1C(=O)c1cccs1  10.1%
24. O=C1CC(c2ccccc2)C(C(=O)Nc2ccccc2F)N1 (stereo not drawn)  9.5%
25. COc1ccc(N2CCN(C(=O)Cn3ncc4c([nH]c5ccccc54)c3=O)CC2)cc1  9.02%
26. COc1ccccc1NC(=O)CSC1CC(=O)N(c2ccc3c(c2)OCO3)C1=O (stereo not drawn)  8.65%
27. O=C(c1ccccn1)c1cc2ccccc2n1S(=O)(=O)c1ccccc1  7.97%
28. COCCn1c(-c2ccccc2)nc2c(c(=O)c3ccccc3n2C)c1=O  7.78%
29. Nc1nonc1/C(=N/O)N1CCCC1  7.07%
30. CCn1nc(NS(=O)(=O)c2ccccc2[N+](=O)[O-])c2cc3ccc(C)cc3nc21  6.61%
31. COc1ccc([C@H]2/C=C\CN(S(=O)(=O)c3ccc4ccccc4c3)[C@@H](C)C(=O)N2Cc2ccc(F)cc2)cc1  6.43%
32. COc1ccc(OC)c(-c2nc(C)sc2CC(=O)O)c1  5.21%
33. CC(C)NC(=O)c1ccccc1NC(=O)/C=C/c1cccc([N+](=O)[O-])c1  5.05%
34. O=C1CC(C(=O)N(c2ccc(F)cc2)C(C(=O)NC2CCCC2)c2ccccn2)CS1 (stereo not drawn)  4.95%
35. Cc1ccc(NC(=O)CSc2ccc(S(=O)(=O)N3CCCC3)cn2)cc1F  4.89%
36. Cn1c(O)c(C=Nc2ccccc2-c2ccccc2)c(=O)n(C)c1=O  4.4%
37. CSc1nsc(SCC(=O)N2CCCCC2)n1  4.18%
38. CCOC(=O)N1CCN(c2cc(N)c([N+](=O)[O-])cc2F)CC1  3.94%
39. COc1ccc(C2=CC(=O)C[C@H](c3ccc(F)cc3)C2)c(F)c1F  2.81%
40. Cc1cc(C(=O)NNC(=S)NCC(C)C)no1  2.76%
41. Cc1onc(-c2ccccc2Cl)c1C(=O)OCC(=O)Nc1cccc(S(=O)(=O)N(C)C)c1  2.08%
42. COc1ccc(NC(=O)C2CC(c3ccccc3Cl)=NO2)cc1 (stereo not drawn)  1.54%
43. NC(=O)OCC(COC(N)=O)c1ccccc1.O  1.48%
44. c1ccc2cc(CN3CCOCC3)ccc2c1  1.34%
45. COc1ccc(NC(=O)N(Cc2cccs2)Cc2cc3cc4c(cc3[nH]c2=O)OCO4)cc1  0.798%
46. CCOCCCNC(=O)c1ccc(OC(C)=O)cc1  0.348%
47. C[C@H](O)[C@@]1(O)CC[C@H]2[C@@H]3CC[C@@H]4C[C@H](O)CC[C@]4(C)[C@H]3CC[C@@]21C  -0.0961%
48. Cc1cccc(NC2(C(F)(F)F)N=C(c3ccccc3)NC2=O)n1 (stereo not drawn)  -1.67%
49. C/C(NCCCn1ccnc1)=C(\C#N)C(N)=O  -1.85%
50. CC(C)(C)CC(C)(C)NCC(=O)Nc1c2c(nc3ccccc13)CCC2.O=C(O)C(=O)O  -3.35%
51. CN(C)S(=O)(=O)c1cccc(C(=O)OCC(=O)NC2CCCc3ccccc32)c1 (stereo not drawn)  -3.61%
52. O=c1[nH]nnc2sc3c(c12)CCCC3  -3.79%
53. CN(C)c1ccc(NC(=O)CCCCCn2nnc3ccccc3c2=O)cc1  -4.39%
54. COc1ccc(NC(=O)C(c2cc3c(cc2[N+](=O)[O-])OCO3)N(C)C)cc1 (stereo not drawn)  -5.23%
55. Cc1ccc2c(CN(C)Cc3cccc(F)c3)cc(=O)oc2c1  -5.55%
56. O=C(CNc1cccc(S(=O)(=O)N2CCCC2)c1)Nc1cccc(F)c1  -7.87%
57. COc1ccccc1NC(=O)COC(=O)c1cc2ccccc2cc1O  -8.35%
58. Cc1ccccc1OCC(=O)NCCc1nc2ccccc2[nH]1  -9.27%
59. COc1ccc(/C=N/NC(=O)c2ccccc2O)cc1COc1ccccn1  -11.6%
60. Cc1nc2ccccc2c(=O)n1NC(=O)COc1ccccc1  -11.8%
61. CCCC(=O)NC(=S)Nc1cc(-c2nc3ncccc3o2)ccc1C  -12%
62. Cc1ccc(NC(=O)CCc2c[nH]c3ccccc23)nc1  -12.7%
63. COc1ccc(C2C(C(=O)Nc3ccccc3)=C(C)N=C3SCC(=O)N32)cc1 (stereo not drawn)  -12.8%
64. O=C(CCl)N1CCN(S(=O)(=O)c2ccc3ccccc3c2)CC1  -13.6%
65. CCOC(=O)C1CCC2(CC1)C(C#N)=C(N)Oc1n[nH]c(C)c12 (stereo not drawn)  -14.2%
66. CC(=O)Nc1ccc(NC(=O)c2ccc(-c3ccc([N+](=O)[O-])cc3)o2)cc1  -14.5%
67. O=C(NCCc1cccs1)C1CC(c2cccc(F)c2)=NO1 (stereo not drawn)  -15.3%
68. CC(C)N(C(=O)CSc1ccc(S(=O)(=O)N2CCCCC2)cn1)C(C)C  -15.7%
69. O=C(CN1C(=O)NC(Cc2ccccc2)(Cc2ccccc2)C1=O)NCC1CCCCC1  -16.7%
70. O=c1c2ccccc2[nH]c(=S)n1CCCN1CCN(c2ccccc2)CC1  -19.7%
71. CN1C(=O)C(C2c3ccccc3C(=O)N2Cc2ccc([N+](=O)[O-])cc2)C(=O)N(C)C1=O (stereo not drawn)  -22.1%
72. COc1ccc(-c2nnn(Cc3ccccc3F)n2)cc1  -22.2%
73. O=C(CCCc1nc(-c2ccc(Cl)cc2)no1)Nc1cccnc1  -24.6%
74. COc1ccc(NS(=O)(=O)c2ccc(-c3n[nH]c(=S)n3Cc3ccccc3)cc2)cc1  -25.3%
75. Cc1cc(Cl)ccc1OCCCC(=O)OCC(=O)Nc1cccc(S(N)(=O)=O)c1  -27.1%
76. O=C(N/N=C/c1cccs1)c1cc(-c2ccncc2)nc2ccccc12  -27.1%
77. CN1C(=O)CSc2ccc(NC(=O)N3CCOCC3)cc21  -27.4%
78. O=C(Nc1ccc(F)cc1)c1cc(-c2ccncc2)nc2c(Cl)cccc12  -27.5%
79. COC(=O)C1=C(c2ccc(C(C)=O)cc2)C[C@@H]2CC[C@H]1N2C(=O)NCCOc1ccccc1Cl  -29.1%
80. O=[N+]([O-])c1ccc(CSc2ccc(S(=O)(=O)N3CCCC3)cn2)cc1  -32.6%
81. CCCCCCn1c(=O)c(F)cn(Cc2ccc(OC)c([N+](=O)[O-])c2)c1=O  -40.3%
82. CCC(=O)Nc1nnc(SCC(=O)NCc2ccc3c(c2)OCO3)s1  -42%
83. Cc1ccc(S(=O)(=O)N2CCCC2CNC(=O)c2ccc(F)c(F)c2)cc1 (stereo not drawn)  -52.5%
84. O=C(Nc1ccccc1N1CCN(C(=O)c2ccccc2)CC1)c1ccc(Br)o1  -63.5%
85. Cc1cc(C)n2c(Br)c(CSc3nc4ccccc4o3)nc2n1  -63.9%
86. CC(NC(=O)CCNC(=O)c1ccc(Br)cc1)c1ccc(-n2ccnc2)cc1 (stereo not drawn)  -66.5%
87. Cc1cccn2c(=O)c3cc(C(=O)NCc4cccnc4)c(=N)n(C(C)C)c3nc12  -69.4%
